# The list shows a part of the results.
# What was measured:
# Assay in all cases: glycan array binding signal (z-score within array); higher = stronger binding
# Settings in all cases: glycan notation: IUPAC condensed, linker removed
# [1] = molecular target: Neu5Ac(a2-3)Gal(b1-3)GlcNAc6S
# Method in brief: (§1)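 Columns mapping to the same glycan were averaged after glycan names were converted to IUPAC-condensed notation. The data come from 3228 arrays in the Consortium for Functional Glycomics database, limited to those with an available protein sequence. Binding is reported as a within-array Z-score averaged across arrays of one protein sequence and across linkers.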
# [2] = molecular target: Neu5Ac(a2-3)Gal(b1-3)[Fuc(a1-4)]GlcNAc
# Method in brief: as §1
# [3] = molecular target: Neu5Ac(a2-3)Gal(b1-3)[Fuc(a1-4)]GlcNAc(b1-3)Gal(b1-3)[Fuc(a1-4)]GlcNAc
# Method in brief: as §1
# [4] = molecular target: Neu5Ac(a2-3)Gal(b1-3)[Fuc(a1-4)]GlcNAc(b1-3)Gal(b1-4)[Fuc(a1-3)]GlcNAc
# Method in brief: as §1
# [5] = molecular target: Neu5Ac(a2-3)Gal(b1-3)[GlcNAc(b1-6)]GalNAc
# Method in brief: as §1
# [6] = molecular target: Neu5Ac(a2-3)Gal(b1-3)[Neu5Ac(a2-3)Gal(b1-4)]GlcNAc
# Method in brief: as §1
# [7] = molecular target: Neu5Ac(a2-3)Gal(b1-3)[Neu5Ac(a2-6)]GalNAc
# Method in brief: as §1
# [8] = molecular target: Neu5Ac(a2-3)Gal(b1-3)[Neu5Ac(a2-6)]GlcNAc(b1-3)[Fuc(a1-3)[Gal(b1-4)]GlcNAc(b1-6)]Gal(b1-4)Glc
# Method in brief: as §1
# [9] = molecular target: Neu5Ac(a2-3)Gal(b1-3)]Neu5Ac(a2-3)Gal(b1-4)]GlcNAc
# Method in brief: as §1
# Neu5Ac(a2-3)Gal(b1-4)Glc = molecular target: Neu5Ac(a2-3)Gal(b1-4)Glc
# Method in brief: as §1
# [10] = molecular target: Neu5Ac(a2-3)Gal(b1-4)GlcNAc
# Method in brief: as §1
# [11] = molecular target: Neu5Ac(a2-3)Gal(b1-4)GlcNAc(b1-2)Man
# Method in brief: as §1
# [12] = molecular target: Neu5Ac(a2-3)Gal(b1-4)GlcNAc(b1-2)Man(a1-3)[GlcNAc(b1-2)Man(b1-4)GlcNAc(b1-2)Man(a1-6)]Man(b1-4)GlcNAc(b1-4)GlcNAc
# Method in brief: as §1
# [13] = molecular target: Neu5Ac(a2-3)Gal(b1-4)GlcNAc(b1-2)Man(a1-3)[GlcNAc(b1-4)][Neu5Ac(a2-3)Gal(b1-4)GlcNAc(b1-2)Man(a1-6)]Man(b1-4)GlcNAc(b1-4)GlcNAc
# Method in brief: as §1
# [14] = molecular target: Neu5Ac(a2-3)Gal(b1-4)GlcNAc(b1-2)Man(a1-3)[Neu5Ac(a2-3)Gal(b1-4)GlcNAc(b1-2)Man(a1-6)]Man(b1-4)GlcNAc(b1-4)GlcNAc
# Method in brief: as §1
# [15] = molecular target: Neu5Ac(a2-3)Gal(b1-4)GlcNAc(b1-2)Man(a1-3)[Neu5Ac(a2-3)Gal(b1-4)GlcNAc(b1-2)Man(a1-6)]Man(b1-4)GlcNAc(b1-4)[Fuc(a1-6)]GlcNAc
# Method in brief: as §1
# [16] = molecular target: Neu5Ac(a2-3)Gal(b1-4)GlcNAc(b1-2)Man(a1-3)[Neu5Ac(a2-6)Gal(b1-4)GlcNAc(b1-2)Man(a1-6)]Man(b1-4)GlcNAc(b1-4)GlcNAc
# Method in brief: as §1
# [17] = molecular target: Neu5Ac(a2-3)Gal(b1-4)GlcNAc(b1-2)[Neu5Ac(a2-3)Gal(b1-4)GlcNAc(b1-2)]Man(a1-6)[Neu5Ac(a2-3)Gal(b1-4)GlcNAc(b1-2)Man(a1-3)][GlcNAc(b1-4)]Man(b1-4)GlcNAc(b1-4)GlcNAc
# Method in brief: as §1
# [18] = molecular target: Neu5Ac(a2-3)Gal(b1-4)GlcNAc(b1-2)[Neu5Ac(a2-3)Gal(b1-4)GlcNAc(b1-4)]Man(a1-3)[GlcNAc(b1-4)][Neu5Ac(a2-3)Gal(b1-4)GlcNAc(b1-2)[Neu5Ac(a2-3)Gal(b1-4)GlcNAc(b1-6)]Man(a1-6)]Man(b1-4)GlcNAc(b1-4)GlcNAc
# Method in brief: as §1
# [19] = molecular target: Neu5Ac(a2-3)Gal(b1-4)GlcNAc(b1-2)[Neu5Ac(a2-3)Gal(b1-4)GlcNAc(b1-4)]Man(a1-3)[GlcNAc(b1-4)][Neu5Ac(a2-3)Gal(b1-4)GlcNAc(b1-4)Man(a1-6)]Man(b1-4)GlcNAc(b1-4)GlcNAc
# Method in brief: as §1
# [20] = molecular target: Neu5Ac(a2-3)Gal(b1-4)GlcNAc(b1-2)[Neu5Ac(a2-3)Gal(b1-4)GlcNAc(b1-6)]Man(a1-6)[Neu5Ac(a2-3)Gal(b1-4)GlcNAc(b1-2)Man(a1-3)]Man(b1-4)GlcNAc(b1-4)GlcNAc
# Method in brief: as §1
# [21] = molecular target: Neu5Ac(a2-3)Gal(b1-4)GlcNAc(b1-2)[Neu5Ac(a2-3)Gal(b1-4)GlcNAc(b1-6)]Man(a1-6)[Neu5Ac(a2-3)Gal(b1-4)GlcNAc(b1-2)Man(a1-3)][GlcNAc(b1-4)]Man(b1-4)GlcNAc(b1-4)GlcNAc
# Method in brief: as §1
# [22] = molecular target: Neu5Ac(a2-3)Gal(b1-4)GlcNAc(b1-3)Gal
# Method in brief: as §1
# [23] = molecular target: Neu5Ac(a2-3)Gal(b1-4)GlcNAc(b1-3)Gal(b1-3)GlcNAc
# Method in brief: as §1
# [24] = molecular target: Neu5Ac(a2-3)Gal(b1-4)GlcNAc(b1-3)Gal(b1-4)GlcNAc
# Method in brief: as §1
# [25] = molecular target: Neu5Ac(a2-3)Gal(b1-4)GlcNAc(b1-3)Gal(b1-4)GlcNAc(b1-2)Man(a1-3)[Neu5Ac(a2-3)Gal(b1-4)GlcNAc(b1-3)Gal(b1-4)GlcNAc(b1-2)Man(a1-6)]Man(b1-4)GlcNAc(b1-4)GlcNAc
# Method in brief: as §1
# [26] = molecular target: Neu5Ac(a2-3)Gal(b1-4)GlcNAc(b1-3)Gal(b1-4)GlcNAc(b1-3)Gal(b1-4)GlcNAc
# Method in brief: as §1
# [27] = molecular target: Neu5Ac(a2-3)Gal(b1-4)GlcNAc(b1-3)Gal(b1-4)GlcNAc(b1-3)Gal(b1-4)GlcNAc(b1-2)Man(a1-3)[Neu5Ac(a2-3)Gal(b1-4)GlcNAc(b1-3)Gal(b1-4)GlcNAc(b1-3)Gal(b1-4)GlcNAc(b1-2)Man(a1-6)]GalNAc
# Method in brief: as §1
# [28] = molecular target: Neu5Ac(a2-3)Gal(b1-4)GlcNAc(b1-3)Gal(b1-4)GlcNAc(b1-3)GalNAc
# Method in brief: as §1
# [29] = molecular target: Neu5Ac(a2-3)Gal(b1-4)GlcNAc(b1-3)Gal(b1-4)GlcNAc(b1-3)[Neu5Ac(a2-3)Gal(b1-4)GlcNAc(b1-3)Gal(b1-4)GlcNAc(b1-6)]GalNAc
# Method in brief: as §1
# [30] = molecular target: Neu5Ac(a2-3)Gal(b1-4)GlcNAc(b1-3)Gal(b1-4)GlcNAc(b1-6)[Gal(b1-3)]GalNAc
# Method in brief: as §1
# [31] = molecular target: Neu5Ac(a2-3)Gal(b1-4)GlcNAc(b1-3)Gal(b1-4)[Fuc(a1-3)]GlcNAc
# Method in brief: as §1
# [32] = molecular target: Neu5Ac(a2-3)Gal(b1-4)GlcNAc(b1-3)GalNAc
# Method in brief: as §1
# [33] = molecular target: Neu5Ac(a2-3)Gal(b1-4)GlcNAc(b1-3)[Neu5Ac(a2-3)Gal(b1-4)GlcNAc(b1-6)]GalNAc
# Method in brief: as §1
# [34] = molecular target: Neu5Ac(a2-3)Gal(b1-4)GlcNAc(b1-6)GalNAc
# Method in brief: as §1
# [35] = molecular target: Neu5Ac(a2-3)Gal(b1-4)GlcNAc(b1-6)[Gal(b1-3)]GalNAc
# Method in brief: as §1
# [36] = molecular target: Neu5Ac(a2-3)Gal(b1-4)GlcNAc(b1-6)[Neu5Ac(a2-3)Gal(b1-3)]GalNAc
# Method in brief: as §1
# [37] = molecular target: Neu5Ac(a2-3)Gal(b1-4)GlcNAc6S
# Method in brief: as §1
binder,measurement,setting,value
"LSECtin (Homo sapiens), Q6UXB4 (protein) MDTTRYSKWGGSSEEVPGGPWGRWVHWSRRPLFLALAVLVTTVLWAVILSILLSKASTERAALLDGHDLLRTNASKQTAALGALKEEVGDCHSCCSGTQAQLQTTRAELGEAQAKLMEQESALRELRERVTQGLAEAGRGREDVRTELFRALEAVRLQNNSCEPCPTSWLSFEGSCYFFSVPKTTWAAAQDHCADASAHLVIVGGLDEQGFLTRNTRGRGYWLGLRAVRHLGKVQGYQWVDGVSLSFSHWNQGEPNDAWGRENCVMMLHTGLWNDAPCDSEKDGWICEKRHNC",glycan array binding signal (z-score),[1],-0.147
same,glycan array binding signal (z-score),[2],-0.079
same,glycan array binding signal (z-score),[3],-0.13
same,glycan array binding signal (z-score),[4],-0.099
same,glycan array binding signal (z-score),[5],-0.134
same,glycan array binding signal (z-score),[6],-0.113
same,glycan array binding signal (z-score),[7],-0.171
same,glycan array binding signal (z-score),[8],-0.14
same,glycan array binding signal (z-score),[9],-0.118
same,glycan array binding signal (z-score),Neu5Ac(a2-3)Gal(b1-4)Glc,-0.116
same,glycan array binding signal (z-score),[10],-0.075
same,glycan array binding signal (z-score),[11],-0.127
same,glycan array binding signal (z-score),[12],-0.272
same,glycan array binding signal (z-score),[13],-0.14
same,glycan array binding signal (z-score),[14],-0.133
same,glycan array binding signal (z-score),[15],-0.128
same,glycan array binding signal (z-score),[16],-0.179
same,glycan array binding signal (z-score),[17],-0.146
same,glycan array binding signal (z-score),[18],-0.134
same,glycan array binding signal (z-score),[19],-0.137
same,glycan array binding signal (z-score),[20],-0.104
same,glycan array binding signal (z-score),[21],-0.135
same,glycan array binding signal (z-score),[22],-0.138
same,glycan array binding signal (z-score),[23],-0.215
same,glycan array binding signal (z-score),[24],-0.239
same,glycan array binding signal (z-score),[25],-0.133
same,glycan array binding signal (z-score),[26],-0.196
same,glycan array binding signal (z-score),[27],-0.124
same,glycan array binding signal (z-score),[28],-0.134
same,glycan array binding signal (z-score),[29],-0.129
same,glycan array binding signal (z-score),[30],-0.122
same,glycan array binding signal (z-score),[31],-0.103
same,glycan array binding signal (z-score),[32],-0.208
same,glycan array binding signal (z-score),[33],-0.137
same,glycan array binding signal (z-score),[34],-0.133
same,glycan array binding signal (z-score),[35],-0.204
same,glycan array binding signal (z-score),[36],-0.215
same,glycan array binding signal (z-score),[37],-0.112
